Reference: the supplement of paper PMC9927326
MIC of clinical C. albicans isolates, CLSI broth microdilution (ranges and time not stated); higher = less susceptible. Call: susceptible or wild type [S] / resistant or non-wild type [R] by CLSI breakpoints or epidemiological cut-offs; intermediate and dose-dependent carry no call here (the paper groups them with resistant). '<=' and '>=' mark each drug's lowest and highest value, inferred; the source prints them plain. Isolates are numbered anew.

Experiments:
Assay in all cases: CLSI broth microdilution.
[1] = compound: CCC(C)n1ncn(-c2ccc(N3CCN(c4ccc(OCC5COC(Cn6cncn6)(c6ccc(Cl)cc6Cl)O5)cc4)CC3)cc2)c1=O [itraconazole]
[2] = compound: CCCCCOc1ccc(-c2cc(-c3ccc(C(=O)N[C@H]4C[C@@H](O)[C@@H](O)NC(=O)[C@@H]5[C@@H](O)[C@@H](C)CN5C(=O)[C@H]([C@H](O)CC(N)=O)NC(=O)[C@H]([C@H](O)[C@@H](O)c5ccc(O)c(OS(=O)(=O)O)c5)NC(=O)[C@@H]5C[C@@H](O)CN5C(=O)[C@H]([C@@H](C)O)NC4=O)cc3)no2)cc1 [micafungin]
[3] = compound: CCCCCOc1ccc(-c2ccc(-c3ccc(C(=O)N[C@H]4C[C@@H](O)[C@@H](O)NC(=O)[C@@H]5[C@@H](O)[C@@H](C)CN5C(=O)[C@H]([C@@H](C)O)NC(=O)[C@H]([C@H](O)[C@@H](O)c5ccc(O)cc5)NC(=O)[C@@H]5C[C@@H](O)CN5C(=O)[C@H]([C@@H](C)O)NC4=O)cc3)cc2)cc1 [anidulafungin]
[4] = compound: CC[C@@H]([C@H](C)O)n1ncn(-c2ccc(N3CCN(c4ccc(OC[C@@H]5CO[C@@](Cn6cncn6)(c6ccc(F)cc6F)C5)cc4)CC3)cc2)c1=O [posaconazole]
[5] = compound: CC[C@H](C)C[C@H](C)CCCCCCCCC(=O)N[C@H]1C[C@@H](O)[C@@H](NCCN)NC(=O)[C@@H]2[C@@H](O)CCN2C(=O)[C@H]([C@H](O)CCN)NC(=O)[C@H]([C@H](O)[C@@H](O)c2ccc(O)cc2)NC(=O)[C@@H]2C[C@@H](O)CN2C(=O)[C@H]([C@@H](C)O)NC1=O [caspofungin]
[6] = compound: C[C@@H](c1ncncc1F)[C@](O)(Cn1cncn1)c1ccc(F)cc1F [voriconazole]
[7] = compound: C[C@@H]1[C@H](O)[C@@H](C)/C=C/C=C/C=C/C=C/C=C/C=C/C=C/[C@H](O[C@@H]2O[C@H](C)[C@@H](O)[C@H](N)[C@@H]2O)C[C@@H]2O[C@](O)(C[C@@H](O)C[C@@H](O)[C@H](O)CC[C@@H](O)C[C@@H](O)CC(=O)O[C@H]1C)C[C@H](O)[C@H]2C(=O)O [amphotericin B]
[8] = compound: Nc1[nH]c(=O)ncc1F [flucytosine]
[9] = compound: OC(Cn1cncn1)(Cn1cncn1)c1ccc(F)cc1F [fluconazole]

Row | Test System | MIC [1] | MIC [2] | MIC [3] | MIC [4] | MIC [5] | MIC [6] | MIC [7] | MIC [8] | MIC [9]
1 | Candida albicans isolate 364 (Erg11p: V488I,E266D, Fur1p: WT, Tac1p: N896S) | ≤ 0.015 mg/L [S] | ≤ 0.008 mg/L [S] | 0.06 mg/L [S] | 0.015 mg/L [S] | 0.015 mg/L [S] | ≤ 0.008 mg/L [S] | 0.25 mg/L [S] | ≤ 0.06 mg/L [S] | 0.25 mg/L [S]
2 | Candida albicans isolate 193 (Erg11p: E266D,G129A, Fur1p: WT, Tac1p: R869Q,L695F,I558V,A377V,F189S,M170V,L131I) | 0.06 mg/L [S] | ≤ 0.008 mg/L [S] | ≤ 0.015 mg/L [S] | 0.03 mg/L [S] | 0.03 mg/L [S] | 0.015 mg/L [S] | 0.5 mg/L [S] | ≤ 0.06 mg/L [S] | 1 mg/L [S]
3 | Candida albicans isolate 16 (Erg11p: A114V, Fur1p: WT, Tac1p: N896S) | ≤ 0.015 mg/L [S] | 0.015 mg/L [S] | 0.06 mg/L [S] | ≤ 0.008 mg/L [S] | 0.03 mg/L [S] | ≤ 0.008 mg/L [S] | 0.25 mg/L [S] | ≤ 0.06 mg/L [S] | 0.25 mg/L [S]
4 | Candida albicans isolate 126 (Erg11p: V488I,E266D, Fur1p: WT, Tac1p: N896S,M170V,S108N) | ≤ 0.015 mg/L [S] | 0.015 mg/L [S] | ≤ 0.015 mg/L [S] | 0.015 mg/L [S] | 0.06 mg/L [S] | ≤ 0.008 mg/L [S] | 0.5 mg/L [S] | ≤ 0.06 mg/L [S] | 0.25 mg/L [S]
5 | Candida albicans isolate 215 (Erg11p: WT, Fur1p: WT, Tac1p: I558V,A377V,F189S,N174D,M170I,K87N) | ≤ 0.015 mg/L [S] | 0.015 mg/L [S] | ≤ 0.015 mg/L [S] | 0.015 mg/L [S] | 0.03 mg/L [S] | ≤ 0.008 mg/L [S] | 0.5 mg/L [S] | ≤ 0.06 mg/L [S] | 0.25 mg/L [S]
6 | Candida albicans isolate 93 (Erg11p: V437I,E266D, Fur1p: WT, Tac1p: F189S,N174D,M170I,A90T,K87N) | 0.03 mg/L [S] | 0.015 mg/L [S] | 0.03 mg/L [S] | 0.015 mg/L [S] | 0.06 mg/L [S] | ≤ 0.008 mg/L [S] | 0.5 mg/L [S] | ≤ 0.06 mg/L [S] | 0.25 mg/L [S]
7 | Candida albicans isolate 61 (Erg11p: E266D, Fur1p: WT, Tac1p: I558V,A377V,F189S,N174D,M170I,K87N) | 0.03 mg/L [S] | ≤ 0.008 mg/L [S] | 0.03 mg/L [S] | 0.03 mg/L [S] | 0.03 mg/L [S] | ≤ 0.008 mg/L [S] | 0.5 mg/L [S] | ≤ 0.06 mg/L [S] | 0.5 mg/L [S]
8 | Candida albicans isolate 25 (Erg11p: WT, Fur1p: WT, Tac1p: N896S) | 0.03 mg/L [S] | ≤ 0.008 mg/L [S] | 0.03 mg/L [S] | 0.015 mg/L [S] | 0.03 mg/L [S] | ≤ 0.008 mg/L [S] | 0.5 mg/L [S] | ≤ 0.06 mg/L [S] | 0.25 mg/L [S]
9 | Candida albicans isolate 365 (Erg11p: Y132H,T123I, Fur1p: R101C, Tac1p: WT) | 0.5 mg/L [R] | 0.12 mg/L [S] | 0.06 mg/L [S] | 0.25 mg/L [R] | 0.25 mg/L [S] | 2 mg/L [R] | 1 mg/L [S] | 8 mg/L [R] | 64 mg/L [R]
